# Reference: the supplement of paper PMC3334620
# In all, about 33,000 sequences were measured (“E-score (-0.5 to 0.5)”: median about -0.054, highest 2% from about 0.35 on). Some of the results follow.
# Biological target: T1, Stb5 (UniProt P38699)
# T1 sequence: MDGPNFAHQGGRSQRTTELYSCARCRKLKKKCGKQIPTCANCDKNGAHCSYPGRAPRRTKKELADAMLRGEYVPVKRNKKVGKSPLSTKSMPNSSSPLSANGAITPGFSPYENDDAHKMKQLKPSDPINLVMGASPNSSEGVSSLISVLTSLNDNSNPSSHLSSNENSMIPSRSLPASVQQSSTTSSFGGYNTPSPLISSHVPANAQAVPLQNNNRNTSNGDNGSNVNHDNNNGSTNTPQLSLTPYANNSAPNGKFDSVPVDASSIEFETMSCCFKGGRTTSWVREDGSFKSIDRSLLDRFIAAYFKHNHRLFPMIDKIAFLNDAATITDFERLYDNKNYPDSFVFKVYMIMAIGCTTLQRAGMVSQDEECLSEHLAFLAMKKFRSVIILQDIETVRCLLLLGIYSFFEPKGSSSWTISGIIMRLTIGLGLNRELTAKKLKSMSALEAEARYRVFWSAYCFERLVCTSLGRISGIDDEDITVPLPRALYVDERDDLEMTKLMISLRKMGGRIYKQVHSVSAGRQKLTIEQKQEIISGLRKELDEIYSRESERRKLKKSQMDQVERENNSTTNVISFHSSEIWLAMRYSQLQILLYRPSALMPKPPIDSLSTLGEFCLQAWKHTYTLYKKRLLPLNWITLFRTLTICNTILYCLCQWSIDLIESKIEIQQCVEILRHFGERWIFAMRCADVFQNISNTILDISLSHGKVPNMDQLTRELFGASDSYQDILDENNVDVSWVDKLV
# Experiment: PBM E-score (8-mer binding enrichment) (E-score (-0.5 to 0.5)); higher = stronger / more preferred TF binding; most listed sequences are background and not binding sites
# Conditions: protein concentration: 200 nM; construct: GST-full length
# Outline: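 E-scores (a modified Wilcoxon-Mann-Whitney statistic) were assigned by the Universal PBM Analysis Suite to every ungapped eight-base word pooled with its reverse complement. The input came from universal all-10-mer Agilent arrays made double-stranded by primer extension and probed with GST-tagged yeast transcription factors at about 100-200 nM. Fluorescent anti-GST detected bound protein, and masliner normalised the scans.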
row,Sequence,PBM E-score
1,CAGCGACA,-0.0488
2,CGCGGAAA,0.205
3,GAAACACA,0.102
4,GACCCATC,0.084
5,CATTTCGG,0.0963
6,CTGCTGCA,-0.29
7,CGCAGAAC,-0.0196
8,AGTTTGAC,-0.0987
9,ATCAAGAC,0.124
10,CCACTTCC,-0.229
11,ACGGATAA,0.215
12,AGTCCTGG,-0.204
13,CGCATCTC,-0.00684
14,AGCACTCG,-0.0832
15,ACCCGTCG,0.222
16,AGGAAAGA,-0.323
17,AACTTTGA,-0.158
18,TCCTCGCA,-0.136
19,CAAAGATG,-0.101
20,CCATCCTC,-0.197
21,GTCTCACA,-0.13
22,AGAGGGGA,-0.0635
23,AACCGGCG,0.313
24,GATTGGAA,-0.0182
25,GATACTAA,0.146

row,Sequence,PBM E-score
1,AAGTCATA,-0.254
2,ACGCAAGA,-0.134
3,ATGGAAAG,0.0404
4,GCAACCGC,0.0926
5,ACAGGTTG,-0.171
6,CCGTTTCA,0.147
7,CAGTGTCA,-0.176
8,CCACGCTA,-0.185
9,CTCTACGA,-0.361
10,AGCCTCCG,0.1
11,TACATAGA,-0.09
12,CCGGTACA,0.303
13,CAACAGCC,-0.12
14,CACGAAGA,-0.115
15,ATGTCATC,-0.259
16,ACAGGTGC,-0.0775
17,ACGGGCGA,0.139
18,ACGTAGTA,0.0861
19,AGTGCCAG,-0.0267
20,ACTGATGG,-0.0723
21,GACGAATA,-0.00361
22,CGTACAGA,-0.0892
23,AAGGAATG,-0.116
24,ATCTTCAA,-0.273
25,AATATGAG,-0.135

row,Sequence,PBM E-score
1,ACATTGAA,0.0392
2,ATCTAGCC,-0.0546
3,CAGACTCG,-0.388
4,ACACGCTC,0.058
5,GGGGCGCA,-0.0317
6,CTTGCCGA,-0.074
7,ATAACCTA,-0.0654
8,CCGCACCG,0.252
9,ATTAGCTC,-0.154
10,ACCTCAGC,-0.0343
11,AGGGCATG,-0.176
12,ACCGTGAA,0.0223
13,AGCCTACA,-0.157
14,CACTCGCC,-0.134
15,GGGCCTGA,-0.0768
16,AGATAAGG,-0.0427
17,GGTAGCTA,-0.181
18,TAGTGACA,-0.216
19,AGGTATAT,-0.153
20,ACAAGCCT,-0.238
21,GTCTGCAA,-0.0363
22,AGGGGATC,-0.0177
23,AGCGACCC,0.1
24,ATTGTCAG,-0.147
25,ACTGTACC,0.0518

row,Sequence,PBM E-score
1,GAGAGACA,-0.101
2,CGTAATCC,0.143
3,AGCCGCAG,0.0437
4,ATTTATGC,-0.0167
5,GACAAAAC,-0.0205
6,TTAAGTAA,0.0405
7,CTAAGGAC,0.108
8,AGTGTATG,-0.00857
9,AGGCGTCA,-0.0617
10,ACGCTTAG,-0.072
11,CAGGTTCG,-0.127
12,AATCGTCT,-0.204
13,AGACTACA,-0.273
14,ATTCCGAG,0.0819
15,AAGCATTC,-0.24
16,CGGGGACC,0.051
17,ATATTCTG,0.0727
18,TCATACAA,-0.0835
19,CCAGCTCG,-0.17
20,CTATTGAA,0.0691
21,CGGAGGCC,0.129
22,CACTGGCA,-0.291
23,AATACGTC,0.126
24,CTTACGCA,-0.135
25,CTAAGGTA,0.0211

row,Sequence,PBM E-score
1,ATTACATC,0.19
2,ATTAGCGA,0.14
3,ACTTGTCC,0.0447
4,GCCACGTA,-0.184
5,CCCGCAGC,0.229
6,CTATCTGC,0.0689
7,GGGAAATA,0.134
8,GGCAGTTA,0.102
9,CAACGGCA,0.157
10,GATCGCAA,-0.0786
11,CGCGGTCC,0.356
12,CATGCTTC,-0.116
13,AAATGAAC,-0.126
14,GTCATTAA,0.00252
15,GACAGATA,0.042
16,CAGCTACG,-0.118
17,CTACGCAA,-0.111
18,CCTAGCAG,-0.116
19,GTTGGTTA,-0.0814
20,AGTTTACG,-0.0295
21,AGTCTTAT,-0.13
22,CACCTGGG,-0.211
23,AGTGATGG,-0.177
24,AGCCACGA,-0.196
25,CCATCGAC,-0.0603

row,Sequence,PBM E-score
1,ATGGTAAC,-0.0321
2,TAGAAAAA,-0.116
3,GAACGTCC,0.038
4,AACTATGA,-0.193
5,ACTTAGTG,-0.0691
6,AGGCCATA,-0.0164
7,ATCGATAC,-0.0882
8,AGGATAAC,-0.21
9,AAGCACCG,0.457
10,GCGCCTGA,-0.00624
11,CACTGGAC,-0.0343
12,ATAGGGAT,-0.0448
13,GTCACAAC,-0.016
14,GCGAGGAC,-0.118
15,CGACGGAA,0.262
16,CTTGCTTC,-0.0694
17,AGTTCATA,-0.0563
18,AGAAATCA,-0.0833
19,CCCCTAGA,-0.312
20,CCACACAC,0.0986
21,CTCCGGAC,0.381
22,AACGCGCG,-0.0281
23,ATGGAAAT,-0.199
24,GGGATACA,0.0412
25,GGCAGCGA,-0.0943

row,Sequence,PBM E-score
1,ACCGAGGC,0.117
2,GGTCTCGA,-0.0531
3,GACGGTCA,0.11
4,GGCCAGAA,-0.136
5,CAGACGAA,-0.139
6,CGCTTCGA,0.00461
7,AAACCGCG,0.258
8,CGAGCAAA,-0.2
9,CCGAGATA,0.186
10,ACTACTTA,-0.155
11,TCCCGGGA,0.181
12,CTCTGGAA,-0.161
13,CCTCGGCA,0.17
14,ACAACAAA,-0.00837
15,CATTACGG,-0.0395
16,GGTCTAGA,0.00139
17,GCGCATAC,0.0543
18,CACGGTAA,0.232
19,CGCTAGCC,-0.175
20,CTCCTCAA,-0.0752
21,CCGATATA,0.267
22,GTTCCCAA,0.0114
23,CTCCCCAA,-0.139
24,AATTATTA,0.017
25,ATCTAAAG,-0.0508

row,Sequence,PBM E-score
1,CTTAGGCC,0.0358
2,AGTTGCCG,0.108
3,CCGTTCAG,0.18
4,CCTTTTCG,-0.0988
5,ACGTCTAA,-0.021
6,CGCAACAC,0.0665
7,GCGCAACC,0.00927
8,CCGTCCAG,0.19
9,CCGCGTAG,0.109
10,TAACGCAA,-0.0697
11,GATGATGC,-0.0873
12,GTGCCATA,-0.112
13,GCTAAGCC,0.0516
14,GGATACTA,0.115
15,GAACGTTA,-0.0144
16,ACACAGGC,-0.0728
17,AAGAGTGG,-0.146
18,GGAACCAA,0.0988
19,GATCCCCC,-0.00321
20,CCCCATCG,0.113
21,ATACGGCC,0.299
22,CGGACATA,0.474
23,CGACTCCA,-0.0871
24,GGTCGATA,0.00753
25,GAGATGAC,-0.132

row,Sequence,PBM E-score
1,GCCAAATA,0.0439
2,GCCGATCC,0.207
3,GTGGTGCA,0.0323
4,AACCAGAC,-0.327
5,CCATCTGC,0.0588
6,AGTGCAAC,-0.0624
7,GTGTGGTA,-0.116
8,GTGCTCGA,-0.133
9,AAACGCAA,-0.0113
10,GAGCATCC,-0.103
11,CGCAATAC,-0.0062
12,CGTTGGTA,0.118
13,ACCGCCCG,0.345
14,CCCAGTTA,-0.0109
15,CACATGTA,-0.115
16,AGTCTCAT,-0.154
17,CTGTATTA,-0.0491
18,AAGTCGGG,0.259
19,CCCAGTGA,-0.136
